Experimental data: the RNAGym collection of RNA variant scans (doi:10.1073/pnas.2313332121)
This sample is rich in variants without activity.

B1: TPR 5TU (parent)
chain: GGAUCUUCUCGAUCUAACAAAAAAGACAAAUCUGCCACAAAGCUUGAGAGCAUCUUCGGAUGCAGAGGCGGCAGCCUUCGGUGGCGCGAUAGCGCCAACGUUCUCAACUAUGACACGCAAAACGCGUGCUCCGUUGAAUGGAGUUUAUCAUG

Variants of: B1
Experiment: polymerase ribozyme fitness, log enrichment relative to wild type (log ratio); higher = more active; in vitro selection for triplet polymerase activity
Outline: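 Each subunit of a heterodimeric triplet polymerase ribozyme was represented by a PCR-built, transcribed mutant library that underwent triplicate single-round in vitro selection with frozen incubation at −7 °C. Extended constructs were recovered by gel excision, streptavidin-bead capture and RT-PCR, and Illumina sequencing of input and output libraries kept genotypes with ≥10 input reads and ≥1 read per output. Fitness is the logarithm of genotype enrichment relative to wild-type enrichment, from inverse-variance-weighted replicate averages, with a logarithm base of 2.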

Row | Variant | polymerase ribozyme fitness (log ratio)
1 | G25U C51A C75U A89C C93U A121G C123U A137G G143U | ≤ -4.2
2 | A26U A30G C32U G58C | ≤ -4.2
3 | A26G U61A A89U G94A G133A U151G | ≤ -4.2
4 | A26G C57A G65U G71A G88A G136U | ≤ -4.2
5 | G25U C79A G88A A110U | ≤ -4.2
6 | G25U C76U U77C A98U U139C A150C | ≤ -4.2
7 | A26C A37G A60U U90A G100C G141A C149U | ≤ -4.2
8 | A26C A30G | ≤ -4.2
9 | A26G C75U C96U | ≤ -4.2
10 | G25U G50U C54A A66U A91C | ≤ -4.2
11 | A26U A49G G58C C76G G81A G92U C149U | ≤ -4.2
12 | A26G G68A | ≤ -4.2
13 | G25C U33C G65U | ≤ -4.2
14 | G25U A52C C87A U90G A142G | ≤ -4.2
15 | G25U G92A | ≤ -4.2
16 | G25U G34U A47C A89G | ≤ -4.2
17 | A26U A52G U78A C103A | ≤ -4.2
18 | A26G G65A A66C G86A C87U A138U | ≤ -4.2
19 | A26C A29G U33C | ≤ -4.2
20 | A26C A52C U55A G58C C96A A138C U139A A142C | ≤ -4.2
21 | G25U C57A C63U G94A C99G C132A | ≤ -4.2

Row | Variant | polymerase ribozyme fitness (log ratio)
22 | A26C U78A G84A G126C C149G | ≤ -4.2
23 | A26G U31G C43G C51A C75U C96U | ≤ -4.2
24 | A26C G48C U82C C85G A97C | ≤ -4.2
25 | A26U A49G C75A A97G C108U | ≤ -4.2
26 | A26G U44G C51G G74U G86U | ≤ -4.2
27 | A26C C27A A41U C96G | ≤ -4.2
28 | A26G G50U U55A C57U C103A G143A | ≤ -4.2
29 | A26C A60U A107C A115G | ≤ -4.2
30 | A26U C27A A47G G65U U78G C108U A115G | ≤ -4.2
31 | A26U A49C G67C G71A C99G | ≤ -4.2
32 | G25U C27G A52G C85A | ≤ -4.2
33 | A26G C27G A40G C57U C85U C118U | -3.9
34 | A26G G50C C79U A150C | ≤ -4.2
35 | A26U A40C G46A A91U U101G C108U A138G | ≤ -4.2
36 | A26U C32G G86A C105U | ≤ -4.2
37 | A26G C43U C123U | ≤ -4.2
38 | G25U A29U C38A A60C U61A C69G G92A | ≤ -4.2
39 | A26C G59U A89C A113G C132G G141U | ≤ -4.2
40 | A26C C36A U44G U55A G140C | -4.19
41 | G25C G50C G65U A89C A91C G126A | ≤ -4.2
42 | A26C G50C C85U C87A A121G U151A | ≤ -4.2

Row | Variant | polymerase ribozyme fitness (log ratio)
43 | A26U C38A U55A A91U C93U A121G C132U | ≤ -4.2
44 | A26U A41C U44A G59A G126U G128A A137G | ≤ -4.2
45 | A26C A49G G50C A89U G92U U134C | ≤ -4.2
46 | G25U A47G C79A G84C C99U U109G C116U | ≤ -4.2
47 | G25U G48C G84A U90G C99G U146C | ≤ -4.2
48 | A26G C38U C54G U55A | ≤ -4.2
49 | G25U A29U C51U G83C C105A C125A U151G | ≤ -4.2
50 | A26G C35U A60G A122U | ≤ -4.2
51 | A26C G86U U104G C116G G133A | ≤ -4.2
52 | A26G C76A | -3.95
53 | A26G C75A G81A G140A U148C | ≤ -4.2
54 | G25U C35U G86C C103U G133U | ≤ -4.2
55 | G25U A49G G59U C99A | ≤ -4.2
56 | G25C C87A G100U | ≤ -4.2
57 | A26C C27G C63U A73U C93A G128U | ≤ -4.2
58 | A26C A64C G68C U90C C95U U139A G143U | ≤ -4.2
59 | A26U C27U G88A A106U | ≤ -4.2
60 | A26G U56A C57U U78A G84C C125A | ≤ -4.2
61 | A26C C93U G128U | ≤ -4.2
62 | A26G A30C A39C A47U C76U C93U A97G G133A G140U G141A | -4.02
63 | A26U A37C A47G C85U U90A U145A U146C | ≤ -4.2

Row | Variant | polymerase ribozyme fitness (log ratio)
64 | G25U G46A C87U G92U C114U | ≤ -4.2
65 | G25U C54A G68C G86U C103G G133A A142C G152A | ≤ -4.2
66 | A26U A29C A47G A49U G59C G65A G117C U139G | ≤ -4.2
67 | A26U A97U A119G | -2.34
68 | A26C C32A U53G U56A C75U U104A U111C A120G | ≤ -4.2
69 | A26C U53A U56A C114U | -3.79
70 | A26C C79A C87A U134C A150U | ≤ -4.2
71 | G25U G50A G92U G117U A150C | ≤ -4.2
72 | A26C C93U C129A U151C | ≤ -4.2
73 | A26C G94A C131U | -1.51
74 | A26G U33A C35G U56A G59A | ≤ -4.2
75 | G25U A49G A52U C85G C125U | ≤ -4.2
76 | A26C C93G C123U | ≤ -4.2
77 | G25C U31C C32G U55A C75G C76U C79A A115G A120C C129A | ≤ -4.2
78 | A26C A49C | ≤ -4.2
79 | A26C U44A G70U C85G U127C A138G | ≤ -4.2
80 | G25C U31A C96G | -1.31
81 | A26C A47G C63A A91C A97U A98G A138U | ≤ -4.2
82 | A26C A37G U55G C87A | ≤ -4.2
83 | A26U C27U A28G A37C C38U A52G A73U C105U | ≤ -4.2
